# Reference: the supplement of paper PMC8728848
# The other results are listed elsewhere or left out.
# B1: Epa1-NP-mutant-Y228W (Candida glabrata), Q6VBJ0 (protein)
# chain: MILNPALFLNKCVCIYTTLILLLLTNGGYATSSNDISLASKDPTTFPLGCSPDITTPKKGLSMELYSYDFRKKGSYPCWDAAYLDPNYPRTGYKSHRLLAKVDGVTGNINFYYHATKGCTPQLGHLPASYNYPKPLTMTNFTMLLYGYFRPKVTGFHTFTISADDLLFVNFGAGNAFDCCRRDSSADHFGNYQAYAIWGSKTAKDELTVHLDAGVYYPIRLFYNNREWDGALSFTFKTESNENTVSDFSEYFFSLDDTEEGCPGLISYDSSCASVKTSKIIGIDYHTETPNENLVPITKTIYHLGIPCTGTTTTPLCGSGFYDPLANKCVTINTSSTSSVTKTTSHTTSKEVSFHSSISSQKTLIPKSIPSPYGPIKSQSIPTEMETSSEISSSEYAFSDVISTPSHSPYTKKHSSLNSSSYTSTVIHSLTSYSISQGIFSTSLSEQNITSKSSTDKFSTATSMSNNITQSSIIISQFSTNNENYTTTSMHTSSDKISTETLNNSISTTTSILFSNSSTILKNNTTIISSDKDTHYHPVNPTIVCSTNKTEIICASITQPSISNSNNHWSSSVLKFNSTTVRSTLPSSAGSNETSINVPFSSSTESNTSTSSTSTSNSKMVRSTLPSSAGSNETSISVPFSSSTESNTSTSSTSTSNSKMVRSTLPSSAGSNETSINVPFSSSTESNTSTSSTSTSNSKTVRSTPFSSAGIIMTSLSQRNNKSASSYASSNSKCYNTADSCRKVHSTPSYLLTSSYTSEGVDYDCSLVSTKLKINDTNCVNNKHTTKSCLKTSVTTTIPTLEIKTARKSSSNTIGLHSYPTSSPNKSISSAPIIGYISSFKTIKTASPSYQTSDLTTITTITSLNNPGSTAVENTHESNDKSRKTSSNDISSKHSVIKETKDAVESSNKSHQTNTLKCSSIIIASSSHNSYESLGGTTLTLTLSKVYSPQNNDTLPFLEISEVNPSRTVLPESSKMMQYLTSTEERNKTARNTIATNIVSISTFHFEGEGNAIRMGYTQLLLMLIGIIVMNIGT
# Tests used:
# Assay in all cases: glycan array binding signal (z-score within array); higher = stronger binding
# Conditions in all cases: glycan notation: IUPAC condensed, linker removed; mutation: Y228W
# [1] = target: Fuc(a1-2)[GalNAc(b1-3)]Gal
# How it was run: (§1)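 The binding signal is a Z-score computed within each array. Data were drawn from 3228 arrays in the Consortium for Functional Glycomics database, restricted to those with a known protein sequence. Scores were averaged over arrays of the same protein sequence at different concentrations or buffers, and over linkers, and negative values can be taken as non-binding.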
# Fuc(a1-3)GlcNAc = target: Fuc(a1-3)GlcNAc
# How it was run: as §1
# [2] = target: Fuc(a1-3)[Gal(b1-4)]Glc6S
# How it was run: as §1
# [3] = target: Fuc(a1-3)[Gal(b1-4)]GlcNAc
# How it was run: as §1
# [4] = target: Fuc(a1-3)[Gal(b1-4)]GlcNAc(b1-2)Man
# How it was run: as §1
# [5] = target: Fuc(a1-3)[Gal(b1-4)]GlcNAc(b1-2)Man(a1-3)[Fuc(a1-3)[Gal(b1-4)]GlcNAc(b1-2)Man(a1-6)]Man(b1-4)GlcNAc(b1-4)GlcNAc
# How it was run: as §1
# [6] = target: Fuc(a1-3)[Gal(b1-4)]GlcNAc(b1-2)Man(a1-3)[Fuc(a1-3)[Gal(b1-4)]GlcNAc(b1-2)Man(a1-6)]Man(b1-4)GlcNAc(b1-4)[Fuc(a1-6)]GlcNAc
# How it was run: as §1
# [7] = target: Fuc(a1-3)[Gal(b1-4)]GlcNAc(b1-3)Gal(b1-3)[Fuc(a1-4)]GlcNAc
# How it was run: as §1
# [8] = target: Fuc(a1-3)[Gal(b1-4)]GlcNAc(b1-3)Gal(b1-4)[Fuc(a1-3)]GlcNAc
# How it was run: as §1
# [9] = target: Fuc(a1-3)[Gal(b1-4)]GlcNAc(b1-3)Gal(b1-4)[Fuc(a1-3)]GlcNAc(b1-3)Gal(b1-4)[Fuc(a1-3)]GlcNAc
# How it was run: as §1
# [10] = target: Fuc(a1-3)[Gal(b1-4)]GlcNAc(b1-3)GalNAc
# How it was run: as §1
# [11] = target: Fuc(a1-3)[Gal(b1-4)]GlcNAc(b1-6)GalNAc
# How it was run: as §1
# [12] = target: Fuc(a1-3)[Gal(b1-4)]GlcNAc(b1-6)[Gal(b1-3)GlcNAc(b1-3)]Gal(b1-4)Glc
# How it was run: as §1
# [13] = target: Fuc(a1-3)[Gal(b1-4)]GlcNAc6S
# How it was run: as §1
# [14] = target: Fuc(a1-3)[Gal3S(b1-4)]Glc
# How it was run: as §1
# [15] = target: Fuc(a1-3)[Gal3S(b1-4)]GlcNAc
# How it was run: as §1
# [16] = target: Fuc(a1-3)[Gal3S(b1-4)]GlcNAc6S
# How it was run: as §1
# [17] = target: Fuc(a1-3)[GalNAc(b1-4)]GlcNAc
# How it was run: as §1
# [18] = target: Fuc(a1-3)[GalNAc(b1-4)]GlcNAc6S
# How it was run: as §1
# Fuc(a1-4)GlcNAc = target: Fuc(a1-4)GlcNAc
# How it was run: as §1
# Fuc(b1-3)GlcNAc = target: Fuc(b1-3)GlcNAc
# How it was run: as §1
# Gal(a1-2)Gal = target: Gal(a1-2)Gal
# How it was run: as §1
# Gal(a1-3)Gal = target: Gal(a1-3)Gal
# How it was run: as §1
# Gal(a1-3)Gal(b1-3)GlcNAc = target: Gal(a1-3)Gal(b1-3)GlcNAc
# How it was run: as §1
# [19] = target: Gal(a1-3)Gal(b1-3)GlcNAc(b1-2)Man
# How it was run: as §1
# [20] = target: Gal(a1-3)Gal(b1-3)GlcNAc(b1-2)Man(a1-3)[Gal(a1-3)Gal(b1-3)GlcNAc(b1-2)Man(a1-6)]Man(b1-4)GlcNAc(b1-4)GlcNAc
# How it was run: as §1
# [21] = target: Gal(a1-3)Gal(b1-3)GlcNAc(b1-3)GalNAc
# How it was run: as §1
# [22] = target: Gal(a1-3)Gal(b1-3)GlcNAc(b1-6)GalNAc
# How it was run: as §1
# [23] = target: Gal(a1-3)Gal(b1-3)[Fuc(a1-4)]GlcNAc(b1-2)Man(a1-3)[Gal(a1-3)Gal(b1-3)[Fuc(a1-4)]GlcNAc(b1-2)Man(a1-6)]Man(b1-4)GlcNAc(b1-4)GlcNAc
# How it was run: as §1
# Gal(a1-3)Gal(b1-4)Glc = target: Gal(a1-3)Gal(b1-4)Glc
# How it was run: as §1
binder,measurement,setting,value
B1,glycan array binding signal (z-score),[1],-0.367
same,glycan array binding signal (z-score),Fuc(a1-3)GlcNAc,-0.44
same,glycan array binding signal (z-score),[2],-0.135
same,glycan array binding signal (z-score),[3],-0.206
same,glycan array binding signal (z-score),[4],-0.21
same,glycan array binding signal (z-score),[5],-0.215
same,glycan array binding signal (z-score),[6],0.029
same,glycan array binding signal (z-score),[7],-0.286
same,glycan array binding signal (z-score),[8],-0.117
same,glycan array binding signal (z-score),[9],-0.169
same,glycan array binding signal (z-score),[10],0.01
same,glycan array binding signal (z-score),[11],-0.026
same,glycan array binding signal (z-score),[12],-0.326
same,glycan array binding signal (z-score),[13],0.024
same,glycan array binding signal (z-score),[14],-0.123
same,glycan array binding signal (z-score),[15],-0.117
same,glycan array binding signal (z-score),[16],0.109
same,glycan array binding signal (z-score),[17],-0.215
same,glycan array binding signal (z-score),[18],-0.418
same,glycan array binding signal (z-score),Fuc(a1-4)GlcNAc,-0.165
same,glycan array binding signal (z-score),Fuc(b1-3)GlcNAc,-0.358
same,glycan array binding signal (z-score),Gal(a1-2)Gal,-0.306
same,glycan array binding signal (z-score),Gal(a1-3)Gal,0.025
same,glycan array binding signal (z-score),Gal(a1-3)Gal(b1-3)GlcNAc,0.033
same,glycan array binding signal (z-score),[19],-0.098
same,glycan array binding signal (z-score),[20],-0.069
same,glycan array binding signal (z-score),[21],-0.282
same,glycan array binding signal (z-score),[22],-0.177
same,glycan array binding signal (z-score),[23],0.045
same,glycan array binding signal (z-score),Gal(a1-3)Gal(b1-4)Glc,-0.006
